In PMC11142307:
No constants are given. Whether binding was seen depends on the method and setting. Binding seen in cells or lysates may run through a third protein. Some binding calls cover weakened binding; strength is not graded here.

Sequences of proteins named here, by UniProt entry; tags and fusion partners are left off.
UniProt P22216: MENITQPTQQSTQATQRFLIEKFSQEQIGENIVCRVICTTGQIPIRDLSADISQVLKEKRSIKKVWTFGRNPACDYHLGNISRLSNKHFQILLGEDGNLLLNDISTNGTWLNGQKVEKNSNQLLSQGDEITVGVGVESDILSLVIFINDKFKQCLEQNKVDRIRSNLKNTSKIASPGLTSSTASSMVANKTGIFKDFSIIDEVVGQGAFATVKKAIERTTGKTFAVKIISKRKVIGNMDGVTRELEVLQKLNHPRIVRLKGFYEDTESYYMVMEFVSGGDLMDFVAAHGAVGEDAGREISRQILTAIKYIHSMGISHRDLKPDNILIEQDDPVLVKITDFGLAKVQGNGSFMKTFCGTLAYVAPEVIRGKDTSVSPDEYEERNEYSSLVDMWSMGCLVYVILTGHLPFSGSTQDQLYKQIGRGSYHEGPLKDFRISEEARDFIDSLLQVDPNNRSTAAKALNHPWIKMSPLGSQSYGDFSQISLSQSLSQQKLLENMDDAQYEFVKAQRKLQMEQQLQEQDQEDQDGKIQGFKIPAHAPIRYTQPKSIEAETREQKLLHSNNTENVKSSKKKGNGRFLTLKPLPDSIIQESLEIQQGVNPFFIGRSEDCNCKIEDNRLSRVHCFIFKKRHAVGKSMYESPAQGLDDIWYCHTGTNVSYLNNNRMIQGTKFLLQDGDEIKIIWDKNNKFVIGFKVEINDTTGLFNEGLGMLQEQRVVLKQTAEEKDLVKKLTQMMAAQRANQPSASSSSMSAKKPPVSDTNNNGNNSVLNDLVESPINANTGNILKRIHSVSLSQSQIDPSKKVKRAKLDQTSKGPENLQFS
UniProt P32447: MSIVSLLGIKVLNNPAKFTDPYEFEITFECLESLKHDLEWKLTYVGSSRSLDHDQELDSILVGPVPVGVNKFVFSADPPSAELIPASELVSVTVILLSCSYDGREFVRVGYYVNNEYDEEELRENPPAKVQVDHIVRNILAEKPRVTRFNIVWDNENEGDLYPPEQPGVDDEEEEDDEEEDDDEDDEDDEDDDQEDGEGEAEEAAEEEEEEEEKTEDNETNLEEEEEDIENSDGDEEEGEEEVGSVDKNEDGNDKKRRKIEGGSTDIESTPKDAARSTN

T1: Rtt107 (budding yeast (endogenous locus, W303 derivative)) (UniProt P38850)
T1 sequence: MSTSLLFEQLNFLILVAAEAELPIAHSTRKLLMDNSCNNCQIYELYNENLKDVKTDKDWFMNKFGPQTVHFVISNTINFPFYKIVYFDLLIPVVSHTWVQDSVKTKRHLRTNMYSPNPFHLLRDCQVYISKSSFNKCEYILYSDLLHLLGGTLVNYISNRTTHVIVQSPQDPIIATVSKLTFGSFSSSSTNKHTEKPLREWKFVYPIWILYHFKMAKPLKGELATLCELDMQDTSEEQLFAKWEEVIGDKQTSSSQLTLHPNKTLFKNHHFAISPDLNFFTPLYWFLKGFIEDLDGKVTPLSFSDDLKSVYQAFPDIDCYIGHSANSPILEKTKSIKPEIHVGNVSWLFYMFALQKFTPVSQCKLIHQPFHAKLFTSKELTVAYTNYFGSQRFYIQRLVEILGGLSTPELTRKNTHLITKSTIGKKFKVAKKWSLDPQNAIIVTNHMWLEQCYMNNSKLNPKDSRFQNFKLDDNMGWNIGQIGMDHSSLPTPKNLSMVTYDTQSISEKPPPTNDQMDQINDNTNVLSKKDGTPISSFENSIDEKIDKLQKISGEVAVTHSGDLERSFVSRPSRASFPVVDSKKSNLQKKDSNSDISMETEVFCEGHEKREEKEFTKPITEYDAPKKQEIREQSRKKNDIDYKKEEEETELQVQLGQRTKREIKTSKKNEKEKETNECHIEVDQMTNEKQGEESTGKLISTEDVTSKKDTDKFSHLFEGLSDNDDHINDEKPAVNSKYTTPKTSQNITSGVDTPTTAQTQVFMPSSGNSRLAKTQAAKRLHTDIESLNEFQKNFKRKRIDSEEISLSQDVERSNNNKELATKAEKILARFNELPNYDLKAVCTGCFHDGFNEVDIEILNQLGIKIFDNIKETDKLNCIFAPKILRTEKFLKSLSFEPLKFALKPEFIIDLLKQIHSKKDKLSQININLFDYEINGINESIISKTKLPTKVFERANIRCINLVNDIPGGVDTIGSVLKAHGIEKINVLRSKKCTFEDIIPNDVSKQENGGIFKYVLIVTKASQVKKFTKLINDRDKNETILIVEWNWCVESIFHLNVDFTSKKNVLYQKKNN


How the values were obtained:
[1] = target: Rad53 (budding yeast (endogenous locus, W303 derivative)) (UniProt P22216); experiment: co-IP; yeast whole-cell extract incubated with anti-Flag or anti-HA beads for 2 h at 4°C; lysis buffer 20 mM HEPES-KOH pH 7.5, 100 mM KOAc, 1% Triton X-100, 2 mM Mg(OAc)2; wild-type and mms22^RIM cells, normal growth and MMS-treated
[2] = target: T1, Rtt107 (budding yeast (endogenous locus, W303 derivative)); experiment: as above

Row | Molecule | binding [1] | binding [2]
1 | Asf1 (from UniProt P32447 1-279) | binds | 
2 | Mms22 (protein, UniProt Q06164 1-1454) MDVDEPNPIVISDSEATDEEISIIYEPEFNENYLWAEENVQEASRSQKIVTERLSLDSTAGESCTPSVVTDTQVTTGLRWSLRKRKAIQKMPYSLERIKHRQLLEGYDISSFDSISNQLTLPKNASTVIHSNDILLTKRTGKPLDEQKDVTIDSIKPENSSVQSQRYDSDEEIPKKRHRTFKDLDQDIVFQSGDSTEDEQDLASTNLQNTQNDEVIFRGRVLNVRTGYRGVLPRVAWEKSLQKQQSSKVTKRKTQLLNHKGVAKRKMNRSAHIEDEEQNLLNDLIAPDDELDIEENAPPDIYLGNLPEDREANEKELKELQEYYESKYSEDAQSAGTSGFNLNEEYRNEPVYELEYDGPGSCISHVSYKDQPIIYLNSRHSDSGFSEQYNISAEDNQSVISLDAAEEHNDGIIDKMLVKPKRIKATNDANFLNTKSKRVRRYKYKYRNSCLAPSTKAIKVGKRSAHKSHLAANNPVSFVSKKNHVIDDYFFEELESQSLEQDDSSSLKPQKKRRKKKAPIYSSFSADLESRRKPVFNTVVEVPTNRYAFTKPNVRNRDSINHDMEFEEEDSNQELGPIMVVLDSILLKKPFEPPNFFKIQLSDKSFLLSKLNPADIATSLQKIFRVIIDKGITDTELVHFNESLIAFLVHLDMPELFDLIGEFHREFRSKVNSLRKKAKPIHFFQIAACQLMFLEISRYNKISAAAKFDMDVKLLDHIVSFFKLLSVCYDSVMKNPMQYLYTSYYILSAVVDVIHKKEALWDLFQKHPFSPHISLLLVNIFPTKVCRWQVLRLDSEFQPLSSAFRFINYCIETCNWNVTNSLILSLDRIFKRRRFSDFEEESDLSQNNKIIYPPTNQLTSRLMFNRYLHLLTLCELSSSDTQRVIPMGDISMNDSLSVLKNRLNLLIVLATRFDLNLEKRFQELTRPLYSKEYLNLHTQNTVRTITTLIMQASLSFLEISRIKNHPFSGKFIASLFDKLVLQQPSISGVTENFLKEFTNLVSKMKRKSVSMLKFLYPSLVAMSQENIFESSFFLLLQVYLKSLDVLGPTWVQNYLFQFIKSKAQENERWIECYCQIGKFLVDSGIFTWWTFFTYNGLDAALHFQLAFHSLIIDFCDTDSFELLKKPLYSIASDLLLISKDDAFYHFLSNLLKRAHIIVADLKPVSDENELLRLAYIFSKALKKNAYQDLLAVFLSLAKKHYDEGDISRNFLAKYLEFLNKNCLTELRNNQLFISLRRELGISSDEDEKCAFWDSFNEAGDILSKAAFVETGIVQACCTGNEIDGYLDNLSTLFTSTMLESPFAFFSDLVIAHIFENRPFFDVNIKNFLLSHFIDLFNKVLKMKFEQVSPDEFAELCKVYRALCIECATDDTFNSNSDLIAAKDAFLVSVLRIADGFWEHDKLLQLRMLDSNMNIPNQIPHTTLQSSLSAIVIKIIESNIGKIEASEPFKTFKNT |  | binds
3 | Dpb11 (protein, UniProt P47027 1-764) MKPFQGITFCPTAINNEILAKKISKKIIKLGGIFSKDLTRQVNVLVVGSTTNTNKFKFAVKHRFDIIFIDIQAIDDIYQLWLSGENILPDSNTATMTGSTYEMLKILYRRFSFKYLHNFNIFIGRITDTNITSIDSLVRSIKKLGCSSYNYQNFVIKDTSSHNDDDDQGQNGQISIFVTDTLLGARVNAAIEQNIPIVHFKWILDCQKRSALLPYDPYYLLPNIKDLPYDSIGSNSCDCWDKINTTFPTNIDAQSSLQRQQSSSTLTPSLPKTSSLLNKFKPKGEKIWDKAMSLQQHSKTNFSVLGQSPLSINNKQEDLSDNSTLIFKNCAFIIHHIFPGNHRSILTKIVVQNGGKIETSYLSGIYDHSYYIIPSNKALDSFNDLPEIIDDNDGIVTEFFIERCLYYQKLLHPIDLWSKPFLSTIEFQVSSSSKLLHHEFSSSPFLNVTITGFSGVELLHLTKVLNLLKPMGINYVEYLNKSTDILLINLAALPSIPKTHPLWSNEFSDLFTQFCINNNNDDPGDNNRKDFQNNSILRNSMKRKIEYIKKFHSIPVVTPAFIFKLLSAASGENNEIFLNNIKWCIICPRGHKDDFKCKIKKPYYTSISSEKKYQNNDPKIDKTILLKRNNSSLSEHSMKDTKNELLQKIRETDSGRKKRSVSSSIMDVSSERQMPDTKRIKLESLPKNFVPKQIKRTTSWGTIMSENVPTEQPTAISNPEEIPRTEEVSHTQVTYGSIQDKKRTASLEKPMRRQTRNQTKELDS |  | binds
4 | Mms22 with alanine substitution of D13 and Y33 in the Rtt107-interaction-motif (mms22^RIM) (protein, UniProt Q06164 1-1454) MDVDEPNPIVISASEATDEEISIIYEPEFNENALWAEENVQEASRSQKIVTERLSLDSTAGESCTPSVVTDTQVTTGLRWSLRKRKAIQKMPYSLERIKHRQLLEGYDISSFDSISNQLTLPKNASTVIHSNDILLTKRTGKPLDEQKDVTIDSIKPENSSVQSQRYDSDEEIPKKRHRTFKDLDQDIVFQSGDSTEDEQDLASTNLQNTQNDEVIFRGRVLNVRTGYRGVLPRVAWEKSLQKQQSSKVTKRKTQLLNHKGVAKRKMNRSAHIEDEEQNLLNDLIAPDDELDIEENAPPDIYLGNLPEDREANEKELKELQEYYESKYSEDAQSAGTSGFNLNEEYRNEPVYELEYDGPGSCISHVSYKDQPIIYLNSRHSDSGFSEQYNISAEDNQSVISLDAAEEHNDGIIDKMLVKPKRIKATNDANFLNTKSKRVRRYKYKYRNSCLAPSTKAIKVGKRSAHKSHLAANNPVSFVSKKNHVIDDYFFEELESQSLEQDDSSSLKPQKKRRKKKAPIYSSFSADLESRRKPVFNTVVEVPTNRYAFTKPNVRNRDSINHDMEFEEEDSNQELGPIMVVLDSILLKKPFEPPNFFKIQLSDKSFLLSKLNPADIATSLQKIFRVIIDKGITDTELVHFNESLIAFLVHLDMPELFDLIGEFHREFRSKVNSLRKKAKPIHFFQIAACQLMFLEISRYNKISAAAKFDMDVKLLDHIVSFFKLLSVCYDSVMKNPMQYLYTSYYILSAVVDVIHKKEALWDLFQKHPFSPHISLLLVNIFPTKVCRWQVLRLDSEFQPLSSAFRFINYCIETCNWNVTNSLILSLDRIFKRRRFSDFEEESDLSQNNKIIYPPTNQLTSRLMFNRYLHLLTLCELSSSDTQRVIPMGDISMNDSLSVLKNRLNLLIVLATRFDLNLEKRFQELTRPLYSKEYLNLHTQNTVRTITTLIMQASLSFLEISRIKNHPFSGKFIASLFDKLVLQQPSISGVTENFLKEFTNLVSKMKRKSVSMLKFLYPSLVAMSQENIFESSFFLLLQVYLKSLDVLGPTWVQNYLFQFIKSKAQENERWIECYCQIGKFLVDSGIFTWWTFFTYNGLDAALHFQLAFHSLIIDFCDTDSFELLKKPLYSIASDLLLISKDDAFYHFLSNLLKRAHIIVADLKPVSDENELLRLAYIFSKALKKNAYQDLLAVFLSLAKKHYDEGDISRNFLAKYLEFLNKNCLTELRNNQLFISLRRELGISSDEDEKCAFWDSFNEAGDILSKAAFVETGIVQACCTGNEIDGYLDNLSTLFTSTMLESPFAFFSDLVIAHIFENRPFFDVNIKNFLLSHFIDLFNKVLKMKFEQVSPDEFAELCKVYRALCIECATDDTFNSNSDLIAAKDAFLVSVLRIADGFWEHDKLLQLRMLDSNMNIPNQIPHTTLQSSLSAIVIKIIESNIGKIEASEPFKTFKNT |  | no binding
